Results taken from PubChem BioAssay AID1476 (National Center for Advancing Translational Sciences (NCATS), 2009).
About 4,500 (2.2%) of roughly 200,000 compounds were called active. Inconclusive means that the source gave no clear call. Such entries were picked first, then a sample of the others. Calls come from the whole dose curve; as a rule, active = well fitted inhibition curve with a large enough effect; inconclusive = small, poorly fitted or top-dose-only effect, or effect the other way; inactive = flat fitted curve, though single readings scatter. A potency beside an inconclusive call is a rough fit, not a confirmed value.

Target: Cruzipain (Trypanosoma cruzi) (UniProt P25779)
Chain of UniProt P25779 (P25779 whole entry, looked up): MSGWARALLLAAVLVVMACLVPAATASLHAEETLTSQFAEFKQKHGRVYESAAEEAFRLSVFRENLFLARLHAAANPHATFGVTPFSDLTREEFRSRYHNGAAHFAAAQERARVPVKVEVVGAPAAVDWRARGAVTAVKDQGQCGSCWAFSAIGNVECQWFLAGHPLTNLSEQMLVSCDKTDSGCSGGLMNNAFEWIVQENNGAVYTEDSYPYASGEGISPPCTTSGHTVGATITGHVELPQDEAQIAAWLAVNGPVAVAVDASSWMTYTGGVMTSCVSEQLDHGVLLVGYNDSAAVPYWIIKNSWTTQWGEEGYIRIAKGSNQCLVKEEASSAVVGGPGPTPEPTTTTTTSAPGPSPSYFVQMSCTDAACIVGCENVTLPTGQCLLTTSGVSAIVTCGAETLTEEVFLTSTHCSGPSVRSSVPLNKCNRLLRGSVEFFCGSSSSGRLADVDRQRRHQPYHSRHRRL
Assay: qHTS Assay for Promiscuous and Specific Inhibitors of Cruzain (without detergent); note: nearly all actives have a fitted effect of over 40% in size;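 for max response, negative = inhibition: plate controls were enzyme without inhibitor for no effect and buffer without enzyme for full effect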
Conditions: purified cruzain, Z-FR-AMC fluorescence, no detergent
Summary of the method: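 Detergent-free condition (0.00005% Triton X-100) in acetate buffer pH 5.5 with DTT. 1.5 nM enzyme and compound were pre-mixed 15 min, then 2 uM Z-FR-AMC substrate added; reaction progress from fluorescence change between first and third reads (60 s).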
Potency is the fitted concentration of half-maximal effect; tags give direction and shape of the fitted curve.

Compound	Potency	max response, negative = inhibition
Cc1ccc(Oc2ccc(NC(=O)Cn3ccsc3=N)cc2)cc1	inconclusive: 39.8 µM [inhibitor, single point]	–
COc1ccc(NS(=O)(=O)c2ccc3oc(Nc4ccc5c(c4)OCCO5)nc3c2)cc1	inconclusive: 31.6 µM [inhibitor, single point]	–
COc1ccc(NC(=O)c2cc3cc(C)ccc3n2C)cc1	inconclusive: 15.8 µM [inhibitor, single point]	–
O=C(CSc1nnc(-c2cnccn2)n1Cc1ccco1)c1ccc2ccccc2c1	inconclusive: 39.8 µM [activator, single point]	–
O=C(NNC(=S)NC1CCCCC1)c1cccc(S(=O)(=O)Nc2ccccc2Cl)c1	–	inactive: 7.49%
Cc1ccc(-c2nnc3ccccc3c2C(=O)Nc2cccc(Cl)c2)cc1	inconclusive: 39.8 µM [inhibitor, single point]	–
CCOC(=O)c1c(Nc2ccc(Cl)cc2)sc(/C=C2\C=Nc3ccccc32)c1O	active: 7.94 µM	–
COc1ccc2c(C)cc(SCC(=O)Nc3nsc(-c4ccc(C)cc4)n3)nc2c1	inconclusive: 39.8 µM [inhibitor, single point]	–
O=C(Nc1cc(Cl)cc(Cl)c1)c1cc(S(=O)(=O)N2CCc3ccccc3C2)ccc1F	active: 15.8 µM	–
CN(C(=O)c1ccc2c(c1)SC1=NS(=O)(=O)CCN12)C(c1ccccc1)c1ccccc1	inconclusive: 39.8 µM [activator, single point]	–
Cc1nn(-c2ccccc2)c(N2CCCC2)c1/C=N/NC(=O)c1cccc(S(=O)(=O)Nc2ccc(Cl)cc2)c1	inconclusive: 3.16 µM [inhibitor, full curve]	–
NC(=O)CSc1nnc(-c2cccc(S(=O)(=O)N3CCOCC3)c2)n1C1CCCCCC1	inconclusive: 39.8 µM [activator, single point]	–
CC1=NN(c2ccc(Br)cc2)C(=O)/C1=C/c1cccs1	–	inactive: -1.15%
COc1ccc(CNC(=O)c2cc(-c3ccc(C)c(C)c3)n[nH]2)cc1	–	inactive: 8.56%
COc1ccccc1-c1nnc(SCC(=O)Nc2cc(C)on2)o1	inconclusive: 31.6 µM [activator, single point]	–
COC(=O)CCc1sc(NC2CCCCC2)nc1-c1ccc(OC)cc1	inconclusive: 31.6 µM [inhibitor, single point]	–
CCN(CCCNC(=O)c1nn(-c2ccc(OC)c(Cl)c2)c(=O)c2c1c1ccccc1n2C)c1cccc(C)c1	–	inactive: -19%
CCOC(=O)c1c(NC(=S)Nc2ccccc2)sc(C)c1C	inconclusive: 15.8 µM [inhibitor, single point]	–
O=C(O)c1[nH]c2ccc(Cl)cc2c1CC(=O)N1CCN(C(=O)c2ccco2)CC1	inconclusive: 31.6 µM [activator, single point]	–
O=C(CSC1=NCCN1)NC12CC3CC(CC(C3)C1)C2	–	inactive: 19.6%
COc1ccccc1N1CCN(c2nc3c(S(=O)(=O)c4ccc(C)c(C)c4)nnn3c3ccc(Cl)cc23)CC1	inconclusive: 3.16 µM [inhibitor, single point]	–

Compound	Potency	max response, negative = inhibition
CC(C)C(=O)Nc1nnc(SCC(=O)N2c3ccccc3CC2C)s1 (stereo unspecified)	active: 31.6 µM	–
COc1ccc(CCNC(=O)CCc2c(C)c3cc4c(C)c(C)oc4cc3oc2=O)cc1	–	inactive: 5.3%
COc1ccc(N2C(=O)CC(N3CCN(S(=O)(=O)c4c(F)cccc4F)CC3)C2=O)cc1OC (stereo unspecified)	inconclusive: 39.8 µM [activator, single point]	–
CC1=C(/C=C/C(C)=C/C=C/C(C)=C/C=O)C(C)(C)CCC1	–	inactive: 15.6%
Cn1c(SCC(=O)OC2CCCCC2)nnc1-c1ccco1	inconclusive: 3.98 µM [activator, single point]	–
CCc1ccc(-c2nc(-c3cc4ccccc4oc3=O)sc2C)cc1	inconclusive: 12.6 µM [activator, partial curve, poor fit]	–
CCOC(=O)C(NS(=O)(=O)c1ccccc1)(C(F)(F)F)P(=O)(OCC(C)C)OCC(C)C (stereo unspecified)	inconclusive: 25.1 µM [activator, single point]	–
Cc1c(-c2nc(N)nc(C3CC3)c2C)nc(N)nc1C1CC1	–	inactive: 3.85%
COc1cc(/C=N/n2cnnc2)ccc1OCCSc1ccc(C)cc1	inconclusive: 39.8 µM [activator, single point]	–
Cc1cccc(C)c1NC(=O)COc1cccc(/C=N/NC(=O)C(=O)NCc2ccccc2)c1	active: 25.1 µM	–
O=C(CC1C(=O)N(c2ccccc2)C(=S)N1c1ccccc1)c1ccc(Br)cc1 (stereo unspecified)	inconclusive: 39.8 µM [inhibitor, single point]	–
Cc1ccc(NC(=O)C(OC(=O)c2ccccc2Cl)c2ccccc2)cc1Cl (stereo unspecified)	inconclusive: 39.8 µM [inhibitor, single point]	–
CCCCOC(=O)C1=C(N)OC2=C(C(=O)CC(C)(C)C2)[C@]12C(=O)N(C)c1ccccc12	inconclusive: 31.6 µM [activator, single point]	–
CCNC(=O)c1ccc2nc(Cc3ccccc3)oc2c1	–	inactive: -7.43%
Fc1ccc(-c2nnc(-c3ccc(Cl)cc3)o2)cc1	inconclusive: 39.8 µM [inhibitor, single point]	–
Cc1cc(C)c(C)c(S(=O)(=O)N2CCN(CC(=O)Nc3sccc3C#N)CC2)c1C	inconclusive: 25.1 µM [inhibitor, single point]	–
O=C(Nc1c(C(=O)Nc2cccc(F)c2)oc2ccccc12)c1cc2ccccc2o1	active: 15.8 µM	–
O=C1c2cccc3c([N+](=O)[O-])ccc(c23)C(=O)N1c1ccc(Cl)cn1	inconclusive: 31.6 µM [inhibitor, single point]	–
COc1ccccc1C1CC(=O)n2c(nc(-c3ccccc3)c2-c2ccccc2)S1 (stereo unspecified)	inconclusive: 39.8 µM [inhibitor, single point]	–
Fc1ccc(-c2ccc(CNCCSc3nnnn3-c3ccccc3)o2)cc1Cl	inconclusive: 39.8 µM [activator, single point]	–
